Laboratory results: the supplement of paper PMC8728848
Some of the results follow.

Columns and labels:
Assay in all cases: glycan array binding signal (z-score within array); higher = stronger binding
Details in all cases: glycan notation: IUPAC condensed, linker removed
[1] = molecular target: Fuc(a1-2)Gal(b1-4)GlcNAc(b1-3)Gal(b1-4)GlcNAc(b1-3)Gal(b1-4)GlcNAc
In short: (§1)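 Glycan array binding is given as a within-array Z-score, which can be read as non-binding when negative. The arrays, 3228 of them, came from the Consortium for Functional Glycomics database and were retained only where the protein sequence was available. Z-scores were averaged across arrays of the same protein sequence at different concentrations or buffers and across linkers.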

[2] = molecular target: Fuc(a1-2)Gal(b1-4)GlcNAc(b1-3)GalNAc
In short: as §1

[3] = molecular target: Fuc(a1-2)Gal(b1-4)GlcNAc(b1-3)[Fuc(a1-2)Gal(b1-4)GlcNAc(b1-6)]GalNAc
In short: as §1

[4] = molecular target: Fuc(a1-2)Gal(b1-4)GlcNAc(b1-3)[Fuc(a1-3)[Gal(b1-4)]GlcNAc(b1-6)]Gal(b1-4)Glc
In short: as §1

[5] = molecular target: Fuc(a1-2)Gal(b1-4)GlcNAc(b1-6)GalNAc
In short: as §1

[6] = molecular target: Fuc(a1-2)Gal(b1-4)GlcNAc6S
In short: as §1

[7] = molecular target: Fuc(a1-2)Gal(b1-4)[Fuc(a1-3)]GlcNAc
In short: as §1

[8] = molecular target: Fuc(a1-2)Gal(b1-4)[Fuc(a1-3)]GlcNAc(b1-2)Man(a1-3)[Fuc(a1-2)Gal(b1-4)[Fuc(a1-3)]GlcNAc(b1-2)Man(a1-6)]Man(b1-4)GlcNAc(b1-4)[Fuc(a1-6)]GlcNAc
In short: as §1

[9] = molecular target: Fuc(a1-2)Gal(b1-4)[Fuc(a1-3)]GlcNAc(b1-2)[Fuc(a1-2)Gal(b1-4)[Fuc(a1-3)]GlcNAc(b1-4)]Man(a1-3)[Fuc(a1-2)Gal(b1-4)[Fuc(a1-3)]GlcNAc(b1-2)Man(a1-6)]Man(b1-4)GlcNAc(b1-4)GlcNAc
In short: as §1

[10] = molecular target: Fuc(a1-2)Gal(b1-4)[Fuc(a1-3)]GlcNAc(b1-3)Gal(b1-4)[Fuc(a1-3)]GlcNAc
In short: as §1

[11] = molecular target: Fuc(a1-2)Gal(b1-4)[Fuc(a1-3)]GlcNAc(b1-3)Gal(b1-4)[Fuc(a1-3)]GlcNAc(b1-3)Gal(b1-4)[Fuc(a1-3)]GlcNAc
In short: as §1

[12] = molecular target: Fuc(a1-2)Gal(b1-4)[Fuc(a1-3)]GlcNAc(b1-3)GalNAc
In short: as §1

[13] = molecular target: Fuc(a1-2)Gal(b1-4)[Fuc(a1-3)]GlcNAc(b1-3)[Neu5Ac(a2-6)Gal(b1-4)GlcNAc(b1-6)]Gal(b1-4)Glc
In short: as §1

[14] = molecular target: Fuc(a1-2)Gal3S(b1-4)GlcNAc
In short: as §1

[15] = molecular target: Fuc(a1-2)Gal6S(b1-3)GlcNAc
In short: as §1

[16] = molecular target: Fuc(a1-2)Gal6S(b1-3)GlcNAc6S
In short: as §1

[17] = molecular target: Fuc(a1-2)Gal6S(b1-4)Glc
In short: as §1

[18] = molecular target: Fuc(a1-2)Gal6S(b1-4)Glc6S
In short: as §1

[19] = molecular target: Fuc(a1-2)[Gal(a1-3)]Gal
In short: as §1

[20] = molecular target: Fuc(a1-2)[Gal(a1-3)]Gal(b1-3)GalNAc
In short: as §1

[21] = molecular target: Fuc(a1-2)[Gal(a1-3)]Gal(b1-3)GalNAc(b1-3)Gal(a1-4)Gal(b1-4)Glc
In short: as §1

[22] = molecular target: Fuc(a1-2)[Gal(a1-3)]Gal(b1-3)GlcNAc
In short: as §1

[23] = molecular target: Fuc(a1-2)[Gal(a1-3)]Gal(b1-3)GlcNAc(b1-2)Man(a1-3)[Fuc(a1-2)[Gal(a1-3)]Gal(b1-3)GlcNAc(b1-2)Man(a1-6)]Man(b1-4)GlcNAc(b1-4)GlcNAc
In short: as §1

[24] = molecular target: Fuc(a1-2)[Gal(a1-3)]Gal(b1-3)GlcNAc(b1-2)Man(a1-3)[Fuc(a1-2)[Gal(a1-3)]Gal(b1-3)GlcNAc(b1-2)Man(a1-6)]Man(b1-4)GlcNAc(b1-4)[Fuc(a1-6)]GlcNAc
In short: as §1

[25] = molecular target: Fuc(a1-2)[Gal(a1-3)]Gal(b1-3)GlcNAc(b1-3)GalNAc
In short: as §1

[26] = molecular target: Fuc(a1-2)[Gal(a1-3)]Gal(b1-3)GlcNAc(b1-6)GalNAc
In short: as §1

[27] = molecular target: Fuc(a1-2)[Gal(a1-3)]Gal(b1-4)Glc
In short: as §1

[28] = molecular target: Fuc(a1-2)[Gal(a1-3)]Gal(b1-4)GlcNAc
In short: as §1

[29] = molecular target: Fuc(a1-2)[Gal(a1-3)]Gal(b1-4)GlcNAc(b1-2)Man
In short: as §1

[30] = molecular target: Fuc(a1-2)[Gal(a1-3)]Gal(b1-4)GlcNAc(b1-2)Man(a1-3)[Fuc(a1-2)[Gal(a1-3)]Gal(b1-4)GlcNAc(b1-2)Man(a1-6)]Man(b1-4)GlcNAc(b1-4)GlcNAc
In short: as §1

[31] = molecular target: Fuc(a1-2)[Gal(a1-3)]Gal(b1-4)GlcNAc(b1-2)Man(a1-3)[Fuc(a1-2)[Gal(a1-3)]Gal(b1-4)GlcNAc(b1-2)Man(a1-6)]Man(b1-4)GlcNAc(b1-4)[Fuc(a1-6)]GlcNAc
In short: as §1

[32] = molecular target: Fuc(a1-2)[Gal(a1-3)]Gal(b1-4)GlcNAc(b1-3)GalNAc
In short: as §1

[33] = molecular target: Fuc(a1-2)[Gal(a1-3)]Gal(b1-4)GlcNAc(b1-6)GalNAc
In short: as §1

[34] = molecular target: Fuc(a1-2)[Gal(a1-3)]Gal(b1-4)[Fuc(a1-3)]Glc
In short: as §1

[35] = molecular target: Fuc(a1-2)[Gal(a1-3)]Gal(b1-4)[Fuc(a1-3)]GlcNAc
In short: as §1

[36] = molecular target: Fuc(a1-2)[Gal(a1-3)]Gal(b1-4)[Fuc(a1-3)]GlcNAc(b1-3)GalNAc
In short: as §1

[37] = molecular target: Fuc(a1-2)[Gal(a1-4)]Gal(b1-4)GlcNAc
In short: as §1

[38] = molecular target: Fuc(a1-2)[GalNAc(a1-3)]Gal
In short: as §1

[39] = molecular target: Fuc(a1-2)[GalNAc(a1-3)]Gal(b1-3)GalNAc(a1-3)[Fuc(a1-2)]Gal(b1-4)GlcNAc
In short: as §1

[40] = molecular target: Fuc(a1-2)[GalNAc(a1-3)]Gal(b1-3)GalNAc(b1-3)Gal(a1-4)Gal(b1-4)Glc
In short: as §1

[41] = molecular target: Fuc(a1-2)[GalNAc(a1-3)]Gal(b1-3)GlcNAc
In short: as §1

[42] = molecular target: Fuc(a1-2)[GalNAc(a1-3)]Gal(b1-3)GlcNAc(b1-2)Man(a1-3)[Fuc(a1-2)[GalNAc(a1-3)]Gal(b1-3)GlcNAc(b1-2)Man(a1-6)]Man(b1-4)GlcNAc(b1-4)GlcNAc
In short: as §1

[43] = molecular target: Fuc(a1-2)[GalNAc(a1-3)]Gal(b1-3)GlcNAc(b1-2)Man(a1-3)[Fuc(a1-2)[GalNAc(a1-3)]Gal(b1-3)GlcNAc(b1-2)Man(a1-6)]Man(b1-4)GlcNAc(b1-4)[Fuc(a1-6)]GlcNAc
In short: as §1

[44] = molecular target: Fuc(a1-2)[GalNAc(a1-3)]Gal(b1-3)GlcNAc(b1-3)GalNAc
In short: as §1

[45] = molecular target: Fuc(a1-2)[GalNAc(a1-3)]Gal(b1-3)GlcNAc(b1-6)GalNAc
In short: as §1

B1: F17-L (Escherichia coli) (protein)
chain: GPDDYVPSQIAVNTSTLPGVVIGPADAHTYPRVIGELAGTSNQYVFNGGAIALMRGKFTPALPKIGSITYTFHQGNSRDSSDFDIYDIGVSGLGIIIGMAGYWPATPLVPINSSGIYIDPVGANTNPNTYNGATASFGARLFVAFVATGRLPNGYITIPTRQLGTILLEAKRTSLNNKGLTAPVMLNGGRIQVQSQTHHHHHH
glycan array binding signal (z-score) [1]: -0.056 | glycan array binding signal (z-score) [2]: 0.006 | glycan array binding signal (z-score) [3]: -0.132 | glycan array binding signal (z-score) [4]: -0.151 | glycan array binding signal (z-score) [5]: 0.014 | glycan array binding signal (z-score) [6]: -0.085 | glycan array binding signal (z-score) [7]: -0.184 | glycan array binding signal (z-score) [8]: -0.049 | glycan array binding signal (z-score) [9]: -0.199 | glycan array binding signal (z-score) [10]: -0.066 | glycan array binding signal (z-score) [11]: -0.129 | glycan array binding signal (z-score) [12]: -0.092 | glycan array binding signal (z-score) [13]: -0.136 | glycan array binding signal (z-score) [14]: -0.201 | glycan array binding signal (z-score) [15]: -0.091 | glycan array binding signal (z-score) [16]: 0.024 | glycan array binding signal (z-score) [17]: -0.156 | glycan array binding signal (z-score) [18]: 0.046 | glycan array binding signal (z-score) [19]: -0.103 | glycan array binding signal (z-score) [20]: -0.174 | glycan array binding signal (z-score) [21]: -0.026 | glycan array binding signal (z-score) [22]: -0.17 | glycan array binding signal (z-score) [23]: -0.111 | glycan array binding signal (z-score) [24]: -0.039 | glycan array binding signal (z-score) [25]: -0.097 | glycan array binding signal (z-score) [26]: -0.134 | glycan array binding signal (z-score) [27]: -0.117 | glycan array binding signal (z-score) [28]: -0.065 | glycan array binding signal (z-score) [29]: 0.196 | glycan array binding signal (z-score) [30]: 0.019 | glycan array binding signal (z-score) [31]: 0.01 | glycan array binding signal (z-score) [32]: -0.047 | glycan array binding signal (z-score) [33]: -0.039 | glycan array binding signal (z-score) [34]: -0.178 | glycan array binding signal (z-score) [35]: -0.097 | glycan array binding signal (z-score) [36]: -0.138 | glycan array binding signal (z-score) [37]: -0.024 | glycan array binding signal (z-score) [38]: -0.162 | glycan array binding signal (z-score) [39]: -0.08 | glycan array binding signal (z-score) [40]: 0.104 | glycan array binding signal (z-score) [41]: -0.064 | glycan array binding signal (z-score) [42]: -0.078 | glycan array binding signal (z-score) [43]: -0.118 | glycan array binding signal (z-score) [44]: -0.13 | glycan array binding signal (z-score) [45]: -0.007
